Assay results published in publication PMC4336329 (PLoS ONE, 2015).
In all, about 310,000 compounds went through this assay and about 14,000 (4.5%) showed an effect of 50% or more. The effect is printed as a negative number. The list shows a part of the results.

Target: human ether-à-go-go-related gene (hERG) potassium channel (human, UniProt Q12809)
Test: primary screen, population patch clamp on CHO cells stably expressing hERG
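Also: peak tail current of the secondary pulse compared with the same well before compound.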

Chain of human ether-à-go-go-related gene (hERG) potassium channel (Q12809 whole entry, looked up): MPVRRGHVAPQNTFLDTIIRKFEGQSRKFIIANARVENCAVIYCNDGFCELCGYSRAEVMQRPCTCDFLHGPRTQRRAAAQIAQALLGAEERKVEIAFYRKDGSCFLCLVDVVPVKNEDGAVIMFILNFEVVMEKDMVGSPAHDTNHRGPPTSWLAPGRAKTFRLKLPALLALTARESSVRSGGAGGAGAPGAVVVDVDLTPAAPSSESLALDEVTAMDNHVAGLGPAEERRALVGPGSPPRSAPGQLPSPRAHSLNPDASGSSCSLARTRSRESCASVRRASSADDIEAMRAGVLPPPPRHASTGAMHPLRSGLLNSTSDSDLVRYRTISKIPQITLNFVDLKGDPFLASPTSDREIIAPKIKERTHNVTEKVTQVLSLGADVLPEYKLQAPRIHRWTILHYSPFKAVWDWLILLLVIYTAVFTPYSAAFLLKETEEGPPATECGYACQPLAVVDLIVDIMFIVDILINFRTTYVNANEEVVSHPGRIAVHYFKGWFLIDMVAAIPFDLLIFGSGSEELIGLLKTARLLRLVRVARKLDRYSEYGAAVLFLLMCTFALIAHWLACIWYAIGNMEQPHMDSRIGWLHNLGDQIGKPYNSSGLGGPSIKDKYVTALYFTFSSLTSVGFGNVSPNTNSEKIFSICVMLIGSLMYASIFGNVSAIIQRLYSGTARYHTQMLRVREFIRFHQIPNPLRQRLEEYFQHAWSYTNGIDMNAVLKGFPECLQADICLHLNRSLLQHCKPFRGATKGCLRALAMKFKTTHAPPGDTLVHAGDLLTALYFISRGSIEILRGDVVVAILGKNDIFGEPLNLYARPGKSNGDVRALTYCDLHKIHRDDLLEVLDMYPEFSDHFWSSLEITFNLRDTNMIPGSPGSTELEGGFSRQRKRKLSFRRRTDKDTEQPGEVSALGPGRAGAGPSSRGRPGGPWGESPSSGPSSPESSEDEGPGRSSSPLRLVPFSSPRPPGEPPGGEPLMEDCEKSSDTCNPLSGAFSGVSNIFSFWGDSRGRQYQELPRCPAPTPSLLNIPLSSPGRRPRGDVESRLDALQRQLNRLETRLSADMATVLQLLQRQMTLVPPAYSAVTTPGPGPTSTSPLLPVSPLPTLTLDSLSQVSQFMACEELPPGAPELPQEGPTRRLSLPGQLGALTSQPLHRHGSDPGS

| SMILES | hERG current change (%, negative = inhibition) at 10uM [%] |
| --- | --- |
| COc1ccc(NC(=O)N2CCCc3ccccc32)c(OC)c1 | -9.58 |
| Cc1ccc(OCc2nnc(NC(=O)OCC(C)C)s2)c(C)c1 | 21 |
| Cc1cc2cc3c(cc2nc1SCC(=O)O)CCC3 | -0.223 |
| O=C(CN1CCN(Cc2ccccc2)CC1)Nc1ccc(F)c(F)c1.O=C(O)C(=O)O | -57.1 |
| COc1ccc(S(=O)(=O)NCC2CCCN(C(=O)c3cccnc3C)C2)cc1 (centres unmarked) | 28.1 |
| COCCNC(=O)CN1CCOc2ccccc21 | -0.989 |
| O=S(=O)(/N=C(/c1ccccc1Cl)N1CCOCC1)c1ccccc1 | 8.34 |
| c1ccc(Cn2ncc3c(Nc4ccccc4)ncnc32)cc1 | 6.01 |
| CC(NC(=O)c1ccc(Br)s1)C1CCCO1 (centres unmarked) | 7.48 |
| C=C(C)[C@H]1CC=C(C)/C(=N/NC(=O)CNc2ccccc2OC)C1 | 20.4 |
| NNC(=O)c1cccc(COc2ccccc2Br)c1 | -4.08 |
| CC(=O)c1sc(NC(=O)CCCOc2ccc(Cl)cc2)nc1C | 14.7 |
| CCOc1cccc(/C=N/NC(=S)NCCN2CCOCC2)c1O | 26.4 |
| COC(=O)[C@@H]1CCCN1C(=O)c1ccc(OC2CCN(Cc3ccccn3)CC2)cc1 | 20.7 |
| O=C(CSc1ccc(-c2ccco2)nn1)N1CCCC1 | -8.96 |
| Cc1ccccc1CNc1ccc(C(CC(N)=O)NC(=O)c2ccc(Br)cc2)cc1[N+](=O)[O-] (centres unmarked) | 18.3 |
| CCOc1ccccc1-c1nc(C(N)=O)c2[nH]c(=O)n(-c3cccc(C)c3)c2n1 | -27.1 |
| Cc1cc(C)nc(Nc2n[nH]c(COc3ccccc3)n2)n1 | 6.41 |
| O=C(NCCN1CCN(c2ccccc2)CC1)Nc1cccc(Br)c1 | -58.1 |
| O=C(c1ccco1)c1nnn(Cc2ccccc2)c1-c1ccccc1 | -10.7 |
| O=C1c2ccc3c4c(ccc(c24)C(=O)N1c1cccc(O)c1)C(=O)N(c1cccc(O)c1)C3=O | 8.86 |
| CC(=O)C1=C(C)OC(N)=C(C#N)C1c1cccc([N+](=O)[O-])c1 (centres unmarked) | 7.17 |

| SMILES | hERG current change (%, negative = inhibition) at 10uM [%] |
| --- | --- |
| Cc1cccc2c(N=NC(=O)C(C)n3cnc4ccccc4c3=O)c(O)[nH]c12 (centres unmarked) | -28.9 |
| Cc1ccc(C)c(OCC(O)CN2C(C)CCCC2C)c1.Cl (centres unmarked) | -67.9 |
| CSc1nc2n(n1)C(c1ccccn1)C1=C(CC(C)(C)CC1=O)N2 (centres unmarked) | 11.2 |
| O=c1nc(N2CCCCC2)nc(Nc2ccccc2)[nH]1 | -17.6 |
| Cc1cc(C)cc(N(C(=O)c2snc(C(N)=O)c2N)C(C(=O)NCC2CCCO2)c2cccs2)c1 (centres unmarked) | -18.7 |
| COc1ccc(CCNC(=O)C(=O)NCC2OCCN2S(=O)(=O)c2ccc(OC)c(OC)c2)cc1OC (centres unmarked) | 9.05 |
| O=S(=O)(NCC(c1ccccc1)N1CCC(O)CC1)c1ccc(Cl)cc1 (centres unmarked) | -19.6 |
| O=C(N/N=C/c1cn[nH]c1-c1ccccc1)c1ccco1 | 11.6 |
| COc1cccc(CNc2ccccc2O)c1OCc1ccccc1F | -1.17 |
| CC(C)[C@H](Nc1ncnc2c1oc1ccccc12)C(=O)O | 23.6 |
| O=C(NCc1ccco1)c1nc2nc(-c3cccs3)cc(C(F)(F)F)n2n1 | -29.6 |
| Cc1cccc(-n2ncc3c(N4CCOCC4)ncnc32)c1 | -43.4 |
| CCn1c(SCC(=O)NNC(=O)c2ccccc2)nnc1-c1ccncc1 | -5.25 |
| CCOC(=O)CN(Cc1sccc1C)C(=O)Nc1cccc(OC)c1 | 7.38 |
| Cc1nonc1NC(=O)CSc1nnc(-c2ccoc2C)n1-c1cccc(Cl)c1 | -77.9 |
| CCn1c(SCC(=O)Nc2ccc(F)cc2)nnc1-c1cnccn1 | -56.8 |
| Cc1cc2c(=O)n(NC(N)=O)c(C)nc2s1 | -2.05 |
| COc1cc(C2CC(=O)N(CC(=O)NCc3ccco3)c3ccccc3S2)cc(OC)c1OC (centres unmarked) | -19.1 |
| O=C1C[C@H](NC(=O)OCc2ccccc2)CO1 | 6.32 |
| CCc1n[nH]c(=S)n1/N=C/c1cc(Br)c(O)c(OC)c1 | 18.1 |
| O=C(NNC(=S)NC1CCCCC1)c1ccccc1Br | 12.7 |
| CCN(CC)S(=O)(=O)c1cccc(C(=O)N[C@H](C(=O)OCC(=O)Nc2ccccc2)C(C)C)c1 | -25.6 |

| SMILES | hERG current change (%, negative = inhibition) at 10uM [%] |
| --- | --- |
| Cc1ccc(CNC(=O)CN(C(=O)C2(C)CC(=O)N=C3C=CC=CN32)c2cc(C)ccc2C)cc1 (centres unmarked) | 13.6 |
| O=C(O)c1cc(-c2cccnc2)nn1-c1ccccn1 | -18.1 |
| O=C(O)C1(P(=O)(c2ccc(Cl)cc2)c2ccc(Cl)cc2)CCCC1 | 5.46 |
| O=C(COC(=O)c1ccc(-n2cnnn2)cc1)Nc1cc(Cl)ccc1F | -0.927 |
| Cc1[nH]c2ccc(Cl)cc2c(=O)c1CN1CCCC1 | 1.86 |
| COc1ccc(OCC(=O)Nc2cc(S(=O)(=O)N3CCCCC3)ccc2OC)cc1 | -28.5 |
| Cc1ccc(S(=O)(=O)c2ccc(Cl)cc2)cc1S(=O)(=O)N(C)CC(=O)O | 22.8 |
| COc1ccc(C(=O)N2CC3(CC(c4cccc([N+](=O)[O-])c4)=NO3)C[C@H]2C(=O)NCC(N)=O)cc1 (some centres unmarked) | 8.99 |
| COc1ccc(CNC(=O)COC(=O)CCN2C(=O)C3CC=CCC3C2=O)cc1OC (centres unmarked) | 15.7 |
| O=C(c1ccccn1)N(CC1CCCO1)C1(C(=O)NC2CCCCC2)CCCCC1 (centres unmarked) | -4.56 |
| CCC(C)(C)C1CCc2[nH]nc(C(=O)N/N=C(\C)c3ccco3)c2C1 (centres unmarked) | -12.1 |
| Cc1ccc(CC2C(=O)N(c3cc(Cl)ccn3)C(=O)C2C)cc1 (centres unmarked) | -9.63 |
| Cc1ccc2ncccc2c1NC(=S)NC(=O)c1ccccc1 | 11.3 |
| O=C(Nc1nccs1)c1ccc(S(=O)(=O)c2ccccc2)cc1 | 3.97 |
| C#CC[N+](C)(C)C(C#Cc1ccccc1)CC=C.[Br-] (centres unmarked) | 3.61 |
| COc1cc(CN2CCN(S(=O)(=O)c3ccccc3)CC2)cc(OC)c1OC.O=C(O)C(=O)O | -5.31 |
| Cc1cc(NC(=O)COC(=O)c2ccc(OC(F)(F)F)cc2)no1 | -8.13 |
| CCn1nnc(NC(=O)C(c2ccccc2)c2ccccc2)n1 | 9.95 |
| O=C(CN1C2CCCC1CC(NC(=O)C1CCCCC1)C2)NCc1ccc(F)cc1 (centres unmarked) | -44.3 |
| COc1cc(NC(=O)c2ccco2)c(OC)cc1NC(=O)CCC(=O)Nc1cccc(C)c1C | -9.36 |
| Cc1ccc(P(=S)(c2ccc(C)o2)N2CCOCC2)o1 | -2.43 |
| COC(=O)COc1ccc(S(=O)(=O)NCc2ccc3c(c2)OCO3)cc1 | 6.25 |

| SMILES | hERG current change (%, negative = inhibition) at 10uM [%] |
| --- | --- |
| CS(=O)(=O)N(CCc1ccccc1)CC(=O)Nc1ccc2c(c1)OCO2 | -0.238 |
| COc1cccc(C(=O)N2C(C(=O)O)CSC2c2ccccc2Cl)c1 (centres unmarked) | 8.96 |
| CC(C)CN1C(=O)NC(NS(=O)(=O)c2ccc(N)cc2)(C(F)(F)F)C1=O (centres unmarked) | 12.9 |
| CCCCNC(=O)C(=O)N/N=C/c1ccc(C(=O)OC)cc1 | -20.1 |
| COCCCNC(=O)CN(c1cccc(Cl)c1)S(C)(=O)=O | -5.06 |
| CC(C)N1CCN(Cc2ccc(-c3ccccc3Cl)o2)CC1CCO (centres unmarked) | -54.8 |
| COc1ccc(-c2nnc(-c3cccnc3)o2)cc1OC | -27.9 |
| O=C(NCCN1CCCC1)c1ccc(Cn2c(=S)[nH]c3ccc(Br)cc3c2=O)cc1 | 5.77 |
| CCc1c(O)nc(SCC(=O)Nc2ccccc2)n(-c2ccccc2)c1=O | 10.5 |
| O=[N+]([O-])c1ccc(C2=Nc3cc(Cl)ccc3OC2)cc1 | 33.9 |
| CS(=O)(=O)N(CC(=O)Nc1c(F)cccc1F)c1cccc([N+](=O)[O-])c1 | 0.947 |
| O=C(CNS(=O)(=O)c1ccc2ccccc2c1)OCc1nnc(-c2ccccc2)o1 | 6.21 |
| CCC(CCCO)CCC[C@H](C)CCC1OCCO1 (some centres unmarked) | -2.67 |
| CCOc1ccc(NC(=S)/C(=C(\[O-])c2ccc(C)c([N+](=O)[O-])c2)[n+]2ccccc2)cc1 | -1.39 |
| CC(OC(=O)CCCOc1ccccc1)C(=O)Nc1ccc(Cl)cn1 (centres unmarked) | -31.6 |
| CN(CCc1cn[nH]c1)C(=O)CC1C(=O)NCCN1Cc1cccc(Oc2ccccc2)c1 (centres unmarked) | -0.123 |
| COC(=O)c1ccc(CNC(=O)COC(=O)C2CCC(C(C)(C)C)CC2)cc1 (centres unmarked) | 3.52 |
| N=C1C(c2ccccc2)=C(O)CN1c1ccc2c(c1)OCO2 | 9.72 |
| O=C(NNC(=O)c1ccccc1O)c1ccc(S(=O)(=O)Nc2ccccc2F)cc1 | -4 |
| Cc1ccc(C(CNC(=O)Nc2ccc(Cl)cc2)N2CCN(C)CC2)cc1 (centres unmarked) | -76.8 |
